Test results taken from publication PMC6212790.
The other results are listed elsewhere or left out. At the low end of the ranking, values are background and their order means little.

Molecular target: T1, GST-Rok-C97-191 (UniProt O34857)
T1 sequence: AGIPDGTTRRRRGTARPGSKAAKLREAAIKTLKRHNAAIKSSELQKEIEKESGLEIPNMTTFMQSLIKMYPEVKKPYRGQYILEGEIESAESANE
Experiment: protein binding microarray;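 also: rank score from −0.5 (least bound) to 0.5 (best bound)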
Conditions: Rok is a gene silencer of Bacillus subtilis; high values mean tight binding; most listed sequences are background and not binding sites; double strand, one strand shown

Row | Sequence | binding signal [E-score]
1 | ATGTGGTA | 0.205
2 | CAAACCTG | -0.0953
3 | ACTACAAC | 0.295
4 | AAGTTATC | 0.23
5 | ACACCTAG | 0.114
6 | CGGCTGAA | -0.051
7 | ACTTAATG | 0.125
8 | CACTGGTA | 0.15
9 | CCACACCC | -0.252
10 | GACCTGGC | -0.213
11 | CAAACGAA | 0.056
12 | AACTGAAA | 0.0716
13 | CGTGCGGC | -0.21
14 | ATCTGTTA | 0.108
15 | GATGACGC | -0.271
16 | CGCGTTGC | -0.225
17 | CGCATGAA | -0.347
18 | ATGTAAGC | 0.0768
19 | AACCATTC | -0.246
20 | CTAGTAAG | 0.153
21 | ATCCGCAA | -0.0421
22 | ACTTAGGG | -0.0328
23 | CCGATTCG | -0.134
24 | GAGTATTA | 0.187
25 | CTCAATAA | 0.215

Row | Sequence | binding signal [E-score]
26 | CCTCCTGC | -0.281
27 | GTTGAAAA | -0.013
28 | CAACCACC | -0.102
29 | CGAGCCTA | -0.0633
30 | AGCGGAGA | -0.135
31 | AAGGGCCG | -0.211
32 | CCAAACAC | 0.0746
33 | CTTGAGCC | -0.261
34 | GGGACATA | -0.158
35 | AATCGTCT | -0.105
36 | AACGGGTG | -0.0409
37 | AGGAGGGC | -0.397
38 | GTGTCCAA | -0.156
39 | AAGGGGAA | -0.026
40 | TGGCCACA | 0.0325
41 | CTAGCGAA | 0.199
42 | CATATTAC | 0.22
43 | ATATTGTA | 0.363
44 | CCGACAAG | -0.171
45 | CGAAATAA | 0.198
46 | CCTCTAAC | -0.0549
47 | AAACACCG | 0.035
48 | CGTCAGAC | -0.0702
49 | ACGCTTCT | -0.142
50 | AGCTCTTC | -0.066

Row | Sequence | binding signal [E-score]
51 | GTGCATTA | 0.0863
52 | GGCTCCTA | -0.249
53 | GCACCCCA | -0.183
54 | CAGTAAAA | 0.188
55 | AGTGTTAA | 0.0572
56 | AAGACTTA | 0.0286
57 | ATGAATTA | 0.293
58 | GCAAACGC | -0.174
59 | CACATGTG | -0.122
60 | AGAACGCA | -0.159
61 | ATCCTGCC | -0.077
62 | ACCCCCTA | -0.352
63 | AGTTTCGC | 0.195
64 | ACCAACTC | 0.106
65 | TGTATGAA | 0.0242
66 | ACCGCCAC | -0.137
67 | GCTACACA | 0.135
68 | CCGGAACC | -0.0787
69 | CATGTAGG | 0.155
70 | CAAACGCG | -0.194
71 | CTATTCAA | 0.154
72 | GCTAGAGC | -0.091
73 | AAACATCA | 0.128
74 | ACATGCAG | 0.0839
75 | GGCGGAAA | -0.0676

Row | Sequence | binding signal [E-score]
76 | AAGTGGAC | -4.12e-06
77 | GATTTATA | 0.304
78 | CGACGGAG | -0.158
79 | CGATGACA | -0.0553
80 | CTTATAGC | 0.105
81 | CAGTGCCG | -0.128
82 | AAAGTCTT | -0.0704
83 | CACGCTCC | -0.132
84 | CTAGGGAC | 0.0511
85 | GCGCCCAC | -0.236
86 | AGCACGAT | 0.0894
87 | CTACCTCC | 0.167
88 | AGTAAGTG | 0.152
89 | AGGAAATC | 0.0504
90 | AAGGGTGT | -0.0142
91 | CTCAGCAC | -0.156
92 | GGTTCCTA | 0.0539
93 | CCCACGTC | -0.222
94 | ATGCCAAC | -0.0774
95 | GACGAGTC | -0.0746
96 | ACTGGTCA | -0.0495
97 | AGGGCCCG | -0.247
98 | AGTAGACC | 0.0544
99 | GGATTCAC | -0.0342
100 | AATAATCC | 0.0954

Row | Sequence | binding signal [E-score]
101 | AGGTAGAA | 0.433
102 | AGTGCACC | -0.075
103 | ACATACAC | 0.179
104 | CCAGATAC | 0.0727
105 | CCACCAAA | 0.0115
106 | CCCCATAC | -0.121
107 | CAATAGGC | -0.168
108 | AGAGTTAA | 0.085
109 | AAAGTGCG | -0.107
110 | AGAATTCC | 0.151
111 | AGCCAACA | -0.128
112 | GCACCGAC | -0.199
113 | CACGGATA | -0.0437
114 | AACTCAGC | 0.019
115 | CCCGTTAG | -0.257
116 | CTATAGAA | 0.283
117 | GGAGAAGA | 0.00625
118 | TGCGACAA | -0.0569
119 | CCTCTTAG | 0.029
120 | CTTTCTTC | 0.0829
121 | AAAAGATA | 0.137
122 | GCACCGCC | -0.27
123 | GAAGCGAC | -0.216
124 | ATTGTCGG | -0.097
125 | AACTAACA | 0.126

Row | Sequence | binding signal [E-score]
126 | ATGGCAAT | -0.0754
127 | AGAAGGCG | -0.234
128 | AAAAATTC | 0.00754
129 | ATACAACC | 0.201
130 | AGCCATAT | 0.145
131 | GTAGATTA | 0.344
132 | CTACTGCA | 0.0822
133 | GACTGCCA | -0.228
134 | ACTCGTCC | -0.0994
135 | CGACCATC | -0.173
136 | AAACTCCC | 0.0527
137 | CACCTCGA | -0.145
138 | GAATGAAC | -0.00783
139 | CAGTCAGA | -0.00775
140 | ACAGTCCA | -0.301
141 | CCTAAAGG | -0.344
142 | GGCTAGTA | 0.115
143 | AGTATTAC | 0.307
144 | AGGTCCGC | -0.182
145 | TCTTCACA | 0.0725
146 | ACCCCACG | -0.16
147 | AGTTCAGG | -0.0399
148 | ACACTCGC | 0.0723
149 | TAAGCAGA | -0.0954
150 | ATAATTGG | 0.25

Row | Sequence | binding signal [E-score]
151 | TACCGAAA | 0.188
152 | CTTAAGGA | -0.119
153 | GGCCTAGA | -0.0387
154 | TGGCGAAA | 0.0439
155 | GAGATAGC | 0.023
156 | GTTTGAGA | 0.128
157 | AGTCGCAG | -0.091
158 | AGACCCAT | 0.113
159 | CCTTGGAC | -0.131
160 | ACGACCAG | -0.141
161 | GCTTTATA | 0.087
162 | ATCGTCAG | -0.0862
163 | CAGACCGA | -0.0418
164 | CGGGCACA | -0.127
165 | GCTGGACC | -0.155
166 | CGGTCACC | -0.113
167 | AACAGCGG | -0.0981
168 | AAGCTTTG | -0.0491
169 | CGGTGCTA | -0.0714
170 | GCCAGAGA | -0.0535
171 | ATGTATCC | 0.131
172 | GCCCCCGC | -0.246
173 | CTCTCCTC | -0.229
174 | AGCCCATC | -0.28
175 | ACGCGCCA | -0.132

Row | Sequence | binding signal [E-score]
176 | CACGAACG | -0.142
177 | ACTGGTTC | 0.0803
178 | CGCGTATA | 0.112
179 | AGCCTTCC | -0.293
180 | GGGCTCAC | -0.218
181 | ATAGGGCG | -0.0786
182 | CACGCACA | 0.0384
183 | AACTAAGC | -0.002
184 | AGCTCAGA | -0.0615
185 | AGCAACTG | -0.0869
186 | ACTCCGCA | -0.026
187 | GCGCGGAA | -0.0279
188 | ATGTCATA | 0.166
189 | AAGTGGTA | 0.385
190 | CACGGATG | -0.0672
191 | CCATCGTA | 0.0759
192 | ACAGTGCG | -0.137
193 | ATGCCCAG | -0.301
194 | AGAGAGCG | -0.249
195 | CGTGGGTA | -0.0297
196 | CTCAAGAA | 0.0364
197 | AGCGTGCA | -0.122
198 | ATACCTAG | 0.253
199 | CGCTGAAC | -0.22
200 | AACTTTGG | -0.0234

Row | Sequence | binding signal [E-score]
201 | ACTAGTCC | -0.0796
202 | CTAGACAG | -0.0919
203 | AATAGTCA | 0.186
204 | GAGTGAGA | -0.071
205 | CTCGCTAC | 0.102
206 | AAGGCACT | -0.0606
207 | ATTCACGC | 0.045
208 | CTCTGCTC | -0.0467
209 | CCCACCAC | -0.342
210 | AGATGGTA | 0.269
211 | GATCTGAC | -0.0267
212 | CACCAGCC | -0.202
213 | CTTCCAAG | -0.117
214 | CCGAGACA | -0.0987
215 | GCGGGACC | -0.341
216 | CGGGCCGA | -0.218
217 | CAACGGAC | -0.085
218 | CTAGACCC | -0.14
219 | AGCGAAAC | -0.0243
